Patent US10071110B2, “Phosphonate compounds” (priority 1999, dated 2018)

Test system: HIV-1
Details: HIV-1 plaque reduction, Table 5 data

hexadecyloxypropyl-adefovir [HDP-ADV] was tested, and the “logs more active than adefovir” value was “more than 5 logs”.
